Experimental data as given in PubChem BioAssay AID1460 (National Center for Advancing Translational Sciences (NCATS), 2008).
Hit rate of the full screen: of about 270,000 compounds, about 5,800 (2.1%) were called active. This list was built around the results that the source calls inconclusive (neither active nor inactive); the mix of calls is not that of the screen. Calls follow the shape of the dose curve; as a rule, active = well fitted inhibition curve with a large enough effect; inconclusive = small, poorly fitted or top-dose-only effect; inactive = flat fitted curve, though single readings scatter. A potency beside an inconclusive call is a rough fit, not a confirmed value.

The compounds below were run against Microtubule-associated protein tau (Homo sapiens) (UniProt P10636) (assay: qHTS for Inhibitors of Tau Fibril Formation, Thioflavin T Binding). Conditions: recombinant tau K18 P301L (four-repeat tau fragment), heparin-induced fibrillization, ThT fluorescence; series mostly up to 57.4 µM; activity, negative = inhibition: at the top concentration.
Outline: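 Tau K18 P301L fragment (15 uM unlabeled plus 0.24 uM Alexa 594-labeled) in 100 mM sodium acetate pH 7 with compound, fibrillization induced by 20 uM heparin for 6 hr at 37 C. Thioflavin T (30 uM) added, fluorescence read after 1 hr (ex 450, em 510 nm).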
% is scaled to controls: 0 for no effect and ±100 for the full control effect; potency is read from the fitted curve at half-maximal effect; tags tell the direction and shape of the fitted curve.
Also: nearly all actives have a fitted effect of over 55% in size.

Chain of UniProt P10636 (P10636 whole entry, looked up, the tested form may be a part): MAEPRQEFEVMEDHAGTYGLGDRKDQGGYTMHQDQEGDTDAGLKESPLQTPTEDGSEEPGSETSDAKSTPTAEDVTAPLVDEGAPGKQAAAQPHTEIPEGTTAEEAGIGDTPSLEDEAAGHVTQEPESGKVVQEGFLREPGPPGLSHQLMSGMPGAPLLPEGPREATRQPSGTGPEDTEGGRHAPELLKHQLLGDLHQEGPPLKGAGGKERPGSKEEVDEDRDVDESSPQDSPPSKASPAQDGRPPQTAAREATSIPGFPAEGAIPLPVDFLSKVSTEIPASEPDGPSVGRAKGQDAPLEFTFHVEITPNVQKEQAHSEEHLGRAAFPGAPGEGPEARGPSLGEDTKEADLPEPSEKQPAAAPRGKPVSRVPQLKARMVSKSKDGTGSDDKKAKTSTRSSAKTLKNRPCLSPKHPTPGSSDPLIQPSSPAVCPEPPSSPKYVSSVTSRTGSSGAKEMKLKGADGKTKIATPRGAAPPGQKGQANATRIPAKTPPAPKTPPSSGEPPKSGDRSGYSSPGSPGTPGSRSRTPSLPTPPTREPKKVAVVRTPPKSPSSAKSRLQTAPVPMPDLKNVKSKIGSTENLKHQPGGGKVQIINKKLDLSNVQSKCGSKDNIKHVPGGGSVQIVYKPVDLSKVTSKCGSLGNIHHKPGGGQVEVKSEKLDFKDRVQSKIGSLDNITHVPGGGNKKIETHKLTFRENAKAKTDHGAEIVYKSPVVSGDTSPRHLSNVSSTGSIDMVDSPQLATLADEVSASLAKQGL

Question: `c1ccc2c(CSCCc3ccncc3)cccc2c1` was tested. Which “activity, negative = inhibition” value did it give?
Answer: inactive: 1.06%

Question: Which Potency does the source give for `COc1ccc(/C=C2/SC(=O)N(CCNC(=O)C3COc4ccccc4O3)C2=O)cc1` (stereo not drawn) here?
Answer: inconclusive: 3.16 µM [inhibitor, full curve]

Question: How did the Potency turn out when `CCC1=[N+](CC(=O)c2ccc(Br)cc2)CCn2c(C)ccc21` was run?
Answer: inconclusive: 15.8 µM [inhibitor, partial curve]

Question: For `COc1ccccc1OCCCOc1ccc([N+](=O)[O-])cc1Cl`, which Potency is on record?
Answer: inconclusive: 11.2 µM [inhibitor, partial curve]

Question: With `CCOc1ccc(N/C(SCc2cccc([N+](=O)[O-])c2)=C(/C#N)C(N)=O)cc1` as the compound, how does the Potency read?
Answer: inconclusive: 17.8 µM [inhibitor, partial curve]

Question: With `CCOC(=O)c1ccccc1N1C(=O)C2Sc3[nH]c(=O)sc3C(/C=C/c3ccccc3)C2C1=O` (stereo not drawn) as the compound, how does the Potency read?
Answer: inconclusive: 25.1 µM [inhibitor, partial curve]

Question: `CN(C)S(=O)(=O)c1ccc(C(=O)NCc2nnc(SCC(=O)Nc3ccc(F)cc3)n2-c2ccc(F)cc2)cc1` was tested. Which “activity, negative = inhibition” value did it give?
Answer: inactive: -2.78%

Question: How did the “activity, negative = inhibition” value turn out when `Cc1ccccc1NCc1cccn1-c1nnc(N2CCC(C)CC2)s1` was run?
Answer: inactive: -15.2%

Question: How did the “activity, negative = inhibition” value turn out when `CCN(Cc1ccccc1)c1ccc(/C=N/NC(=O)c2cccc(S(=O)(=O)N3CCOCC3)c2)cc1` was run?
Answer: inactive: -8.89%

Question: With `COc1ccc(-c2cn3c(n2)sc2cc(C(=O)Nc4cccc(OC)c4)ccc23)cc1` as the compound, how does the “activity, negative = inhibition” value read?
Answer: inactive: -5.77%

Question: With `COC(=O)c1scc(-c2ccc(C)cc2)c1S(=O)(=O)Nc1ccc(N(C)C)cc1` as the compound, how does the Potency read?
Answer: inconclusive: 7.94 µM [inhibitor, partial curve, poor fit]

Question: `CCN(c1ccccc1)S(=O)(=O)c1ccc(F)cc1` was tested. Which “activity, negative = inhibition” value did it give?
Answer: inactive: 6.24%

Question: Which “activity, negative = inhibition” value does the source give for `CC(CNC(=O)Cc1ccc(NC(=O)N2CCSc3ncccc32)cc1)c1ccccc1` (stereo not drawn) here?
Answer: inactive: -2.56%

Question: Which “activity, negative = inhibition” value does the source give for `COc1ccc(NC(=O)Cn2cnc3sc(C)c(S(=O)(=O)N4CCOCC4)c3c2=O)c(OC)c1` here?
Answer: inactive: -4.99%

Question: How did the “activity, negative = inhibition” value turn out when `Cc1cc(C(=O)CSc2nnc(NCc3ccccc3)s2)c(C)n1C` was run?
Answer: inactive: -21%

Question: For `Cc1cccc(NC(=O)CSC(N)=O)c1C`, which Potency is on record?
Answer: inconclusive: 25.1 µM [inhibitor, single point]

Question: Which “activity, negative = inhibition” value does the source give for `COC(=O)C1(CC(C)C)C=C2C(=C(C(C)C)C(=O)C2C)CN1` (stereo not drawn) here?
Answer: inactive: -9.58%

Question: With `Cc1ccc(S(=O)(=O)/C(C#N)=C/c2c(N3CCN(C)CC3)nc3c(C)cccn3c2=O)cc1` as the compound, how does the Potency read?
Answer: inconclusive: 14.1 µM [inhibitor, partial curve]

Question: For `N#C/C(=C1\C(=O)Nc2c(Cl)cc(Cl)cc21)c1nnc2n1CCCCC2`, which Potency is on record?
Answer: active: 15.8 µM

Question: For `COc1ccc(OCC(O)CN2CCN(c3ccc(Cl)cc3)CC2)cc1` (stereo not drawn), which Potency is on record?
Answer: inconclusive: 22.4 µM [inhibitor, partial curve, poor fit]

Question: How did the Potency turn out when `CCc1ccc2nc3nc(C)cc(C)c3c(N)c2c1` was run?
Answer: inconclusive: 35.5 µM [inhibitor, partial curve]

Question: Which Potency does the source give for `CCCCNC(=O)C(c1ccc(OCC(=O)OC)c(C(=O)OC)c1)N(CCOC)C(=O)CCCCCN1C(=O)NC(c2ccc(-c3ccccc3)cc2)C(C(=O)OCc2ccccc2)=C1C` (stereo not drawn) here?
Answer: inconclusive: 15.8 µM [inhibitor, single point]

Question: Which Potency does the source give for `O=C(NCc1cccnc1)c1ccc2c(c1)N(Cc1ccccc1)CCS2` here?
Answer: inconclusive: 31.6 µM [inhibitor, partial curve]

Question: How did the “activity, negative = inhibition” value turn out when `CC(C)(C)n1nnnc1CN1CCC(NC(=O)NC2CCCCC2)CC1` was run?
Answer: inactive: -6.9%

Question: For `CCOc1ccc(CCNC(=O)c2cc3c(s2)-c2ccccc2OC3)cc1OCC`, which “activity, negative = inhibition” value is on record?
Answer: inactive: -16.7%

Question: Which “activity, negative = inhibition” value does the source give for `CCOc1cccc(CNn2cnnc2)c1OCc1ccccc1Cl` here?
Answer: inactive: -5.53%

Question: For `O=C(c1nn2c(C(F)(F)F)cc(-c3ccco3)nc2c1Br)N1CCCc2ccccc21`, which Potency is on record?
Answer: inconclusive: 31.6 µM [inhibitor, partial curve]

Question: `COc1ccc2oc(=O)c(-c3csc(Nc4ccc(O)cc4)n3)cc2c1` was tested. Which Potency did it give?
Answer: active: 2.24 µM

Question: How did the “activity, negative = inhibition” value turn out when `Cc1cc(C)c(C(=O)COC(=O)c2cc([N+](=O)[O-])ccc2NCCO)cc1C` was run?
Answer: inactive: -12%

Question: With `Cc1nc2c(-c3ccccc3)c(C)nn2c(C)c1CCC(=O)NCc1ccc(F)cc1` as the compound, how does the “activity, negative = inhibition” value read?
Answer: inactive: 0.942%

Question: How did the Potency turn out when `Cc1nc(COc2ccccc2Cl)sc1-c1ccnc(N)n1` was run?
Answer: inconclusive: 1 µM [inhibitor, full curve]

Question: Which Potency does the source give for `O=[N+]([O-])c1ccc2c(c1)nc1n2CCSC1` here?
Answer: inconclusive: 39.8 µM [inhibitor, single point]

Question: How did the Potency turn out when `COc1cccc(OC)c1OCC(O)CN1CCN(c2ccccc2)CC1` (stereo not drawn) was run?
Answer: inconclusive: 15.8 µM [inhibitor, partial curve]

Question: With `CCOc1ccc(NC(=O)CC2C(=O)N(c3ccccc3)C(=O)N2Cc2ccc3c(c2)OCO3)cc1` (stereo not drawn) as the compound, how does the “activity, negative = inhibition” value read?
Answer: inactive: 3.64%

Question: `COc1cc(C(c2c(C)[nH][nH]c2=O)c2c(C)[nH][nH]c2=O)ccc1OC(=O)c1cccc(C)c1` was tested. Which Potency did it give?
Answer: inconclusive: 17.8 µM [inhibitor, partial curve]

Question: With `Nc1ccc(N2CCCCC2)c2nonc12` as the compound, how does the Potency read?
Answer: active: 8.91 µM

Question: `COc1ccc(Cl)cc1C(=O)NNC(=S)NC1CCCC1` was tested. Which “activity, negative = inhibition” value did it give?
Answer: inactive: -2.82%

Question: For `COCCCNCCOCCOc1ccc(Cl)cc1C(C)(C)C`, which “activity, negative = inhibition” value is on record?
Answer: inactive: -7.98%

Question: `CCOC(=O)c1c(N)sc(-c2ccccc2)c1C` was tested. Which Potency did it give?
Answer: active: 25.1 µM

Question: `O=[N+]([O-])c1ccc(/C=N/NC(=S)Nc2ccc(Cl)cc2Cl)s1` was tested. Which Potency did it give?
Answer: inconclusive: 5.01 µM [inhibitor, partial curve]

Question: With `COc1cc(-c2cc(=O)c3c(O)c(OC)c(OC)c(OC)c3o2)cc(OC)c1OC` as the compound, how does the Potency read?
Answer: inactive

Question: How did the “activity, negative = inhibition” value turn out when `C[C@@H](CN1C2=NC[C@H](C)N2C[C@H]1Cc1ccc(O)cc1)NC(=O)CCC1CCCCC1` was run?
Answer: inactive: 1.33%

Question: With `CCc1ccc(N2C(=O)CSC23C(=O)N(Cc2ccc(C)cc2)c2ccccc23)cc1` (stereo not drawn) as the compound, how does the Potency read?
Answer: inconclusive: 28.2 µM [inhibitor, single point]

Question: With `COc1ccc(/C=N/NC(=O)c2cccc([N+](=O)[O-])c2)cc1OC(=O)c1ccc(C)cc1` as the compound, how does the “activity, negative = inhibition” value read?
Answer: inactive: -10.8%

Question: For `Cc1cc([C@](C)(N)C(=O)O)ccc1P(=O)(O)O`, which “activity, negative = inhibition” value is on record?
Answer: inactive: -7.08%

Question: For `O=C1NC2(CCCCCCC2)C(=O)N1Cc1ccc(F)cc1`, which “activity, negative = inhibition” value is on record?
Answer: inactive: -3.04%

Question: `O=c1c(-c2ccc(Cl)cc2)c(C(F)(F)F)oc2c(CN3CCCCC3)c(O)ccc12` was tested. Which “activity, negative = inhibition” value did it give?
Answer: inactive: 3.71%

Question: For `CC(C)C(=O)Nc1ccc(S(=O)(=O)Nc2nccc(/C=C/c3ccccc3)n2)cc1`, which “activity, negative = inhibition” value is on record?
Answer: inactive: -10.9%

Question: `CCOC(=O)c1nn(-c2ccc(C)cc2)c(=O)c2c(N)scc12` was tested. Which Potency did it give?
Answer: active: 14.1 µM

Question: For `COc1ccccc1N1CCN(C(CNC(=O)C(=O)NCc2ccc(C)cc2)c2cccnc2)CC1` (stereo not drawn), which “activity, negative = inhibition” value is on record?
Answer: inactive: -5.42%

Question: How did the “activity, negative = inhibition” value turn out when `O=C(CN1CCN(Cc2ccc(F)cc2Cl)C1=O)NCCc1ccccc1` was run?
Answer: inactive: -12.3%

Question: Which Potency does the source give for `COC(=O)NCC(C)OC(=O)Nc1ccc(Cl)cc1` (stereo not drawn) here?
Answer: inconclusive: 0.631 µM [inhibitor, full curve]

Question: `COc1ccc(C2=NC(c3ccncc3)=Nc3ccc(Br)cc3N2)cc1` was tested. Which Potency did it give?
Answer: inconclusive: 20 µM [inhibitor, single point]

Question: `O=C(NC1CC1)c1ccc(-n2cccc2)cc1` was tested. Which Potency did it give?
Answer: inconclusive: 14.1 µM [inhibitor, partial curve, poor fit]

Question: How did the “activity, negative = inhibition” value turn out when `COc1ccc(CC(=O)NCc2ccc3c(c2)CCN3C(=O)c2ccccc2)cc1OC` was run?
Answer: inactive: -3.77%

Question: With `CN(C)c1ccc(-n2c(CCC(=O)O)ccc2-c2ccccc2)cc1` as the compound, how does the Potency read?
Answer: inconclusive: 20 µM [inhibitor, partial curve, poor fit]

Question: Which Potency does the source give for `O=C1CCN2C=Nc3cccc4ccc1c2c34` here?
Answer: inconclusive: 3.55 µM [activator, full curve]

Question: For `Cc1ccc2nc3sc(C(=O)NCc4ccco4)c(N)c3cc2c1`, which Potency is on record?
Answer: inconclusive: 2.24 µM [inhibitor, full curve]

Question: `Cc1ccc(C2=CC(c3ccccc3F)n3c(nc4ccccc43)N2)cc1C` (stereo not drawn) was tested. Which Potency did it give?
Answer: inconclusive: 39.8 µM [inhibitor, single point]

Question: With `Cc1cccc(OCC(=O)Nc2ccccc2OCc2cc(=O)n3ccccc3n2)c1` as the compound, how does the “activity, negative = inhibition” value read?
Answer: inactive: -4.88%

Question: `O=C(NC1C2CC3CC(C2)CC1C3)c1ccc(N2CCNCC2)c([N+](=O)[O-])c1` (stereo not drawn) was tested. Which Potency did it give?
Answer: inconclusive: 0.316 µM [inhibitor, partial curve]

Question: For `CCCCCCCSc1nnc(-c2ccccc2N)c(=O)[nH]1`, which Potency is on record?
Answer: inconclusive: 17.8 µM [inhibitor, partial curve]

Question: For `Cn1c2ccccc2n2c(=O)c(=O)n(CC(=O)c3ccc(Cl)cc3)nc12`, which Potency is on record?
Answer: inconclusive: 17.8 µM [inhibitor, single point]

Question: `CCCN(N=Nc1cccc([N+](=O)[O-])c1)c1cccc([N+](=O)[O-])c1` was tested. Which “activity, negative = inhibition” value did it give?
Answer: inactive: -14.6%

Question: How did the Potency turn out when `CCOC(=O)C1CCN(c2nc3ccccc3nc2C(C#N)C(=O)NCCc2ccccc2)CC1` (stereo not drawn) was run?
Answer: inconclusive: 20 µM [inhibitor, partial curve]

Question: `COc1ccc(CC(NC(C)=O)C(=O)NC2CCN(c3nnnn3-c3ccccc3)CC2)cc1OC` (stereo not drawn) was tested. Which “activity, negative = inhibition” value did it give?
Answer: inactive: -1.17%

Question: With `COc1ccc(OCC(=O)NC(=S)N2CCCc3ccccc32)cc1` as the compound, how does the Potency read?
Answer: inconclusive: 25.1 µM [inhibitor, partial curve]

Question: `CN(C(=O)c1sc2nc(N3CCOCC3)c3c(c2c1N)CCCC3)c1ccccc1` was tested. Which Potency did it give?
Answer: inconclusive: 14.1 µM [inhibitor, single point]

Question: With `CC(C)C(C(=O)N1CCN(C(=O)OC(C)(C)C)CC1)n1cc(-c2cn([C@@H](C)C(=O)N3CCN(C(=O)OC(C)(C)C)CC3)nn2)nn1` (stereo partly drawn) as the compound, how does the “activity, negative = inhibition” value read?
Answer: inactive: 6.8%

Question: With `CC(/C=C1\N=C(SCc2ccccc2)SC1=O)=C\c1ccccc1` as the compound, how does the Potency read?
Answer: inconclusive: 22.4 µM [inhibitor, partial curve]

Question: Which Potency does the source give for `COc1ccc(O)c(/C=N/NC(=O)c2ccc(CSc3nc(C)cc(C)n3)cc2)c1` here?
Answer: inconclusive: 0.708 µM [inhibitor, full curve]

Question: With `Cc1ccc(/C=C2\SC(=S)N(C3CCS(=O)(=O)C3)C2=O)cc1` (stereo not drawn) as the compound, how does the Potency read?
Answer: inconclusive: 0.708 µM [inhibitor, full curve, poor fit]

Question: How did the Potency turn out when `NS(=O)(=O)c1ccc(NN=C2CCN(Cc3ccccc3)CC2)c([N+](=O)[O-])c1` was run?
Answer: active: 25.1 µM
